# About 4,200 (1.3%) of roughly 330,000 compounds were called active. Inconclusive results, whose numbers are uncertain, are shown with a selection of clear calls. Calls come from the whole dose curve; as a rule, active = well fitted activation curve with a large enough effect; inconclusive = small, poorly fitted or top-dose-only effect; inactive = no such curve, though single readings can be large or run the other way. Potencies beside an inconclusive call are fits to weak or partial responses and may not hold up.
# Experiment: qHTS screen for small molecules that induce genotoxicity in human embryonic kidney (HEK293T) cells expressing luciferase-tagged ELG1; note: nearly all actives have a fitted effect of over 60% in size; for activity change, positive = activation: % of control where 0% means no effect
# Settings: HEK293T ELG1-luciferase reporter, luminescence, 16 h; series mostly up to 46 µM; activity change, positive = activation: at the top concentration
# How it was run: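 HEK293T cells expressing luciferase-tagged ELG1 were exposed to compound or DMSO vehicle for 16 hr at 37 °C and 5% CO2. Luciferase activity was then measured with ONE-Glo after 30 min at room temperature.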
# Potency is the fitted concentration of half-maximal effect; tags give direction and shape of the fitted curve.
SMILES,Potency,"activity change, positive = activation"
O=C(Cc1cccs1)NCc1ccc(F)cc1,"inconclusive: 32.6 µM [activator, partial curve, poor fit]",
COc1cc(NC(=O)Cn2nc(C(F)(F)F)c3c2CCCC3)cc(OC)c1OC,,inactive: -1.21%
O=C(O)CCC(=O)Nc1ccc(-c2nc3ccc(C(=O)c4ccccc4)cc3[nH]2)cc1,,inactive: 9.38%
Cc1occc1-c1nnc(SCC(=O)Nc2ccccn2)o1,"inconclusive: 29.1 µM [activator, single point]",
CC(C)(C)c1ccc(-c2nc3[nH]c(=O)cc(NC(=O)c4ccco4)n3n2)cc1,"inconclusive: 3.66 µM [activator, full curve]",
O=C1C(C=NCc2ccco2)=C(O)c2ccccc21,active: 5.17 µM,
Cc1ccc(C(=O)OCC(=O)c2ccc(Cl)s2)s1,"inconclusive: 16.4 µM [activator, partial curve, poor fit]",
CN1CCN(C(=O)c2cc(-c3ccccc3)on2)CC1,,inactive: 16.7%
CC(C)(C)[C@@H]1COC(=O)[C@H](Cc2ccc(F)cc2)C/C=C\C[C@@H](CC(=O)N(CCO)Cc2ccccc2)C(=O)N1,,inactive: -3.31%
Cc1cc(/C=C2\SC(=O)N(C)C2=O)c(C)n1-c1cccc(C(=O)O)c1,"inconclusive: 18.3 µM [activator, partial curve, poor fit]",
O=C(Cn1nnc2ccccc21)N/N=C\C=C\c1ccccc1,,inactive: 0.224%
COc1ccc(-c2nnc(SCC(=O)N3CCCCC3)o2)cc1,"inconclusive: 23.1 µM [activator, partial curve]",
CCn1c(SCC(=O)c2ccc(C)cc2)nnc1-c1ccoc1C,"inconclusive: 20.6 µM [activator, single point]",
Cn1c(Cc2ccccc2)nnc1SCC(=O)NCCc1ccccc1,,inactive: 11.8%
COc1cccc(-c2nc(-c3cccs3)no2)c1,"inconclusive: 1.83 µM [activator, partial curve]",
CCc1noc(C)c1C(=O)NCCc1ccccc1,active: 16.4 µM,
Cc1ccc(C(=O)COC(=O)CCCC(=O)Nc2cc(C(F)(F)F)ccc2Cl)cc1C,,inactive: 0.493%
COC1=CCC2([N+](=O)[O-])CN(CCO)CC1([N+](=O)[O-])C2 (stereo not given),,inactive: 3.32%
Cc1ccc(C(=O)Nc2ccc(N3CCN(C)CC3)cc2)cc1C,active: 1.83 µM,
COCC(C)N=C1NN=C(c2c[nH]c3ccccc23)CS1 (stereo not given),"inconclusive: 20.6 µM [activator, partial curve, poor fit]",
C/C(=N\NC(=O)c1cc(-c2cccnc2)nc2ccccc12)c1ccccc1O,"inconclusive: 32.6 µM [activator, partial curve, poor fit]",
COC(=O)c1sc(NC(=O)c2ccc(Cn3cc(Cl)cn3)o2)c(C#N)c1C,,inactive: -14.3%
O=C(O)c1cc(-c2ccc3ccccc3n2)nc2ccccc12,"inconclusive: 18.3 µM [activator, partial curve, poor fit]",
Cc1cc(C)c(C#N)c(SCC(=O)Nc2ccc(S(=O)(=O)Nc3ncccn3)cc2)n1,"inconclusive: 20.6 µM [activator, partial curve, poor fit]",
O=C(CCN1C(=O)c2ccccc2C1=O)Nc1ccc(-c2nc3ccccc3o2)cc1,active: 1.46 µM,

SMILES,Potency,"activity change, positive = activation"
CSc1ccccc1-c1nnc(-c2ccc(Cl)cc2)o1,"inconclusive: 9.2 µM [activator, partial curve, poor fit]",
N/C(=N\N=C\c1ccc(Br)o1)c1nonc1N,"inconclusive: 9.2 µM [activator, partial curve]",
CCCC(=O)Nc1cccc(-c2nc3cc(C)c(C)cc3o2)c1,"inconclusive: 10.3 µM [activator, partial curve]",
Cc1nnc(SCC(=O)NC2CCCc3c2cnn3-c2ccccc2F)o1 (stereo not given),,inactive: 0.94%
Cc1ccc(OCCN2C(=O)C(=O)c3cc(C)ccc32)cc1,"inconclusive: 23.1 µM [activator, single point]",
Cc1cccc(CSc2nnc(-c3ccco3)o2)c1,"inconclusive: 20.6 µM [activator, partial curve, poor fit]",
CCC1=C(OC(=O)N(CC)CC)N2C(=O)OC(=NCC(=O)OC)[C@]2(Cc2ccccc2)[C@H]2C1=CC[C@H]1C(=O)NC(=O)[C@H]12,,inactive: 0.627%
Cc1cc(C(=O)CSc2cccc[n+]2[O-])c(C)n1-c1ccccc1,"inconclusive: 1.46 µM [activator, full curve]",
Cc1ccc(C(=O)NC2CCCCCC2)cc1S(=O)(=O)N1CCOCC1,"inconclusive: 32.6 µM [activator, partial curve, poor fit]",
CC(C)CN(C#N)c1nc(N2CCOCC2)nc(N2CCOCC2)n1,,inactive: 2.31%
O=C1c2ccccc2NC(c2ccc(O)cc2)N1/N=C/c1ccc(O)cc1 (stereo not given),,inactive: 16%
Cn1c2ccccc2c(=O)c2cc(C#CC3=CCCCC3)ccc21,"inconclusive: 11.6 µM [activator, partial curve]",
Cc1ccc(CCC(=O)Nc2ncc(Cc3cccc(Cl)c3Cl)s2)o1,"inconclusive: 1.46 µM [activator, full curve]",
COc1cccc(COc2ccc3ccc(=O)oc3c2)c1,"inconclusive: 18.3 µM [activator, partial curve]",
Cc1cc(C(=O)CSc2nc3ccccc3n2CCC#N)c(C)n1Cc1cccs1,active: 8.2 µM,
Cc1ccc(N=Nc2[nH]c3ccccc3c2O)cc1,"inconclusive: 18.4 µM [activator, partial curve, poor fit]",
O=C(Cc1c(Cl)cccc1Cl)OCc1ccccn1,active: 23.1 µM,
COc1ccc(NC(=O)c2c(N)no[n+]2[O-])c(OC)c1,,inactive: 3.21%
O=C(NC(=S)Nc1ccc(N2CCCCC2)cc1)c1ccc2c(c1)OCCO2,"inconclusive: 7.31 µM [activator, partial curve, poor fit]",
CC1(C)CC(=O)c2sc(NC(=O)c3cccs3)nc2C1,"inconclusive: 2.91 µM [activator, partial curve]",
Cc1ccc(C(=O)/C=C/c2ccc3ncccc3c2)cc1,"inconclusive: 29.1 µM [activator, single point]",
S=C(NCc1ccc2c(c1)OCO2)Nc1ccc(-c2nc3ccccc3[nH]2)cc1,,inactive: 0.76%
O=C1Nc2ccc(S(=O)(=O)N3CCCC3)c3cccc1c23,"inconclusive: 20.6 µM [activator, single point]",
CCN(CC)c1ccc(C(=O)Nc2cccc(F)c2)cc1,"inconclusive: 1.16 µM [activator, full curve]",
COc1ccc2nc(NC(=O)C3CCCO3)sc2c1 (stereo not given),"inconclusive: 2.06 µM [activator, full curve]",

SMILES,Potency,"activity change, positive = activation"
COc1ccccc1Cc1nc(-c2ccc(C)cc2)no1,active: 18.4 µM,
Cc1ccc(NC(=O)Nc2ncnc3nc[nH]c23)cc1,"inconclusive: 18.3 µM [activator, partial curve]",
N/C(=N\c1nc2ccccc2o1)NC(=O)c1ccccc1NC(=O)c1ccccc1,,inactive: 5.51%
COc1ccc(C(=O)Nc2cc3c(cc2Cl)OCCCO3)cc1,"inconclusive: 4.11 µM [activator, partial curve, poor fit]",
CCOc1cc(/C=N/NC(=O)c2ccc(N(C)S(=O)(=O)c3ccccc3)cc2)ccc1OC,,inactive: -11%
CCCC(CCC)=NNC(=O)CN(Cc1ccccc1)S(=O)(=O)c1ccccc1,,inactive: -0.785%
O=C(N/N=C/c1cc(O)ccc1[N+](=O)[O-])c1ccc2c(c1)OCCO2,"inconclusive: 5.8 µM [activator, partial curve]",
Cc1ccc(NC(=S)NCCc2ccccc2)nc1,"inconclusive: 5.8 µM [activator, partial curve, poor fit]",
COc1cccc(/C=C2\CCC(C3CCCC3)C2=O)c1 (stereo not given),"inconclusive: 18.3 µM [activator, single point]",
COc1ccc(Nc2nc(-c3ccccc3O)nc3ccccc23)cc1,,inactive: -10.9%
CC(C)CC(CO)N1CCN(C(=O)c2ccc(C(C)(C)C)cc2)CCC1=O (stereo not given),,inactive: 0.0249%
COc1ccc(-c2nc3ccccc3[nH]2)cc1,active: 0.517 µM,
Cc1ccc(OCC(=O)N2CCOCC2)cc1C,"inconclusive: 25.9 µM [activator, partial curve, poor fit]",
O=C(Nc1ccccc1)c1cc2ccc3ccccc3c2s1,"inconclusive: 8.2 µM [activator, partial curve]",
CCOC(=O)C1CCN(S(=O)(=O)c2cc(C(=O)OC)n(C)c2)CC1,,inactive: -4.03%
N#CCCn1cc(/C=N/O)c(-c2ccc(F)cc2)n1,,inactive: -8.11%
CC(Oc1ccc(Br)cc1)C(=O)Nc1nc(-c2ccccn2)cs1 (stereo not given),"inconclusive: 25.9 µM [activator, single point]",
CCN1C(=O)[C@H]2[C@@H](c3ccc(-c4ccc5c(c4)OCO5)c(OC)c3)N[C@@](C)(C(=O)OC)[C@H]2C1=O,,inactive: 1.62%
COC(=O)c1cccc(NC(=O)c2cc3sccc3n2C)c1,"inconclusive: 2.06 µM [activator, partial curve]",
Cc1ccc(NC(=O)c2ccc3c(c2)NC(=O)CS3)nc1,active: 9.2 µM,
CC(C)CSC1=NSC2=NC(=O)/C(=C\c3ccccc3)C(=N)N12,"inconclusive: 1.03 µM [activator, partial curve, poor fit]",
CN(CC(=O)Nc1ccccc1Cl)C(=O)CN1C(=O)NC(c2ccccc2)(c2ccccc2)C1=O,,inactive: 1.25%
COc1cccc(-c2cc(C(=O)N3CCCCCC3)no2)c1,active: 1.46 µM,
Nc1ccc2oc(-c3cccs3)nc2c1,active: 9.2 µM,
Cc1scc(C(=O)N/N=C/c2ccsc2)c1C,active: 10.3 µM,

# Source: PubChem BioAssay AID504466 (National Center for Advancing Translational Sciences (NCATS), 2011)
